The values that follow come from PubChem BioAssay AID485344 (National Center for Advancing Translational Sciences (NCATS), 2010).

“And” between values parts separate entries of the source, which are not always exact repeats. Equal values may be shown once. In all, about 340,000 compounds went through this assay and about 6,900 (2%) were called active. No stated cut-off is given here; in the data, active means inhibition above about 30%; inactive means below that, where a call was filed. This is a selection; strong and weak results do not stand in their true shares. The source gives no active or inactive call for entries shown without one.

The target of the assay is D(2) dopamine receptor (Homo sapiens) (UniProt P14416). In words: HTS Assay for Allosteric Antagonists of the Human D2 Dopamine Receptor: Primary Screen for Antagonists. Further: 0% is about no effect. The following applies: HEK293 TREx D2 cells, calcium flux, dopamine EC80; at 10 µM; stronger effect = higher value. Put shortly: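 Tetracycline-induced HEK293 T-REx cells expressing D2 force-coupled to calcium signalling were dye-loaded, exposed to compound for 180 s, then challenged with an EC80 of dopamine; calcium flux was followed kinetically for a further 180 s.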
UniProt P14416, sequence (P14416 whole entry, looked up): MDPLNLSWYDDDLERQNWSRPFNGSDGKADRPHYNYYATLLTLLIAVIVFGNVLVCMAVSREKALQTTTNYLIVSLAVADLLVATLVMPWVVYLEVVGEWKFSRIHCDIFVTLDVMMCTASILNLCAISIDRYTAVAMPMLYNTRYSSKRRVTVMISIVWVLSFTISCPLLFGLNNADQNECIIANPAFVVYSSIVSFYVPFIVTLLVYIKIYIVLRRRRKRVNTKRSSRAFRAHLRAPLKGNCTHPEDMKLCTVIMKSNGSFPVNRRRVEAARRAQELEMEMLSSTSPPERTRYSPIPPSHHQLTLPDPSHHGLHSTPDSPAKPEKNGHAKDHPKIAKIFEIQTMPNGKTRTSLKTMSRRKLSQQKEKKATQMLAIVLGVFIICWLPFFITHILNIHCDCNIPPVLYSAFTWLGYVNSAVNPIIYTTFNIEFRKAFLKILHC
Consider `COc1ccc(Cl)cc1NC(=O)N1CCC(CN2CCc3ccccc3C2)CC1`, for which the inhibition stood at 13.5%.
The same measure for `Cc1ccc(NC(=O)Cn2nnnc2-c2ccccc2N)cc1`: -3.48%; for `O=c1c2cc3c(cc2nc2sc(Nc4ccc(F)cc4F)nn12)OCO3`: 11%; for `O=C(C1CCCN(S(=O)(=O)c2cccs2)C1)N1CCN(c2cccc(Cl)c2)CC1` (configuration not stated): 8.38%.
The same measure for `Cc1ccc(C)c(N2CCN(c3ncnc4c3nc3n4CCCCC3)CC2)c1`: 3.55%; for `O=C1CC(C(=O)Nc2ccc(F)c(Cl)c2)N=C(N2CCCCC2)N1` (configuration not stated): active: 30.3%; for `COc1ccc(S(=O)(=O)NNc2nc(C)cc(C)n2)cc1Br`: active: 52.4%.
With `CCN1c2ccccc2-n2cccc2C12CCN(C(=O)Nc1ccccc1C(F)(F)F)CC2` the figure was -27.4%; with `C#CCN(C)Cc1ccccc1`, active: 31.9%; with `CCOc1ccc(OCC)c(NC(=O)C2CCCN(S(=O)(=O)c3ccc4c(c3)oc(=O)n4C)C2)c1` (configuration not stated), -8.62%.
Take `CCOc1ccc(CNC(=O)Cn2c(=O)c3cccn3c3ccc(F)cc32)cc1`: the inhibition was 19.6%.
With `COc1cccc(NC(=O)[C@H](Cc2ccccc2)NC(=O)[C@@H]2Cc3ccccc3CN2)c1` the figure was active: 35.4%; with `Cc1cccc(-c2nc(SCCCOc3ccccc3Cl)n3[nH]c(=O)cc3n2)c1`, 15.1%.
With `CC(=O)Nc1ccc(Nc2ncnc3c2c(-c2ccccc2)cn3-c2ccccc2)cc1` the figure was -8.18%; with `COc1ccc(Cl)cc1NC(=O)NCC1CCN(C(=O)OC(C)(C)C)CC1`, active: 95.4%; with `Cc1cc(C)cc(-n2c(SCC(=O)N3CCc4ccccc43)nc3c([nH]c4ccccc43)c2=O)c1`, -2.55%.
With `O=C(Nc1ccc(F)c(Cl)c1)N1CCN(C(=O)c2nsc3ccccc23)CC1` the figure was -10.1%; with `CCCNC(=O)c1ccc2c(c1)N(Cc1cccc(C)c1)C(=O)c1ccccc1S2`, -8.73%; with `Cc1ccc(S(=O)(=O)c2nnn3c2nc(NCc2ccc(F)cc2)c2sccc23)cc1`, -8.09%.
Take `Cc1cc(C)n(C(=O)c2ccc(NC(=O)CC(C)C)cc2)n1`: the inhibition is active: 32.9%.
The same measure for `COc1cc(NC(=O)Cn2c(=O)n(Cc3ccccc3OC)c(=O)c3cccnc32)cc(OC)c1`: 11.6%; for `Cc1cc2nnc(SCC(=O)N3C(C)CCCC3C)n2c(N)n1` (configuration not stated): active: 30.4%; for `Cc1ccc(C(=O)COC(=O)c2cc(-c3ccccc3)nc3ccccc23)cc1C`: -5.5%.
Regarding `Cc1ccc(C)c(N2CCN(S(=O)(=O)c3ccc4oc(=O)c5ncn(C)c5c4c3)CC2)c1`, the inhibition was -21%.
With `O=C(CC1N=C2c3ccccc3N=C(SCC(=O)Nc3cccc(C(F)(F)F)c3)N2C1=O)NCc1cccs1` (configuration not stated) the figure was 17.6%.
The same measure for `COc1ccc(CCNC(=O)c2nn(-c3ccc(C)cc3)c(=O)c3c2c2ccccc2n3C)cc1OC`: 8.76%; for `Cc1ccc(C)c(Cn2c(=O)n(Cc3ccccc3)c(=O)c3c(C)c(C)sc32)c1`: 6.34%.
As to `CCc1ccccc1NC(=O)Nc1nnc(N2CCCC2)s1`, the inhibition is 24.2%.
The same measure for `CCc1ccccc1NC(=O)c1cc(S(=O)(=O)N(CC)c2ccccc2)ccc1F`: 26.1%; for `CCN1CCN(CCCN(Cc2ccco2)C(=S)Nc2cc(Cl)ccc2C)CC1`: active: 42.3%; for `CCc1nnc(NC(=O)CN2CCN(c3nc(-c4ccccc4)cs3)CC2)s1`: active: 31.5%.
With `CC1CCC(=O)N(CCSc2ccccc2)CC1` (configuration not stated) the figure was active: 33.3%.
With `COc1ccccc1NC(=O)CCCOc1cc(=O)n(C)c2ccccc12` the figure was 10.8%; with `CC1CCN(c2nc3c(S(=O)(=O)c4ccccc4)nnn3c3ccsc23)CC1`, -14%.
For the molecule `CCS(=O)(=O)Nc1cccc(-c2cc(-c3ccccc3)c3cc(C)ccc3n2)c1`, the inhibition is active: 30.3%.
With `COc1ccc(-c2nc(C)c(CCNC(=O)C(=O)Nc3cccc(F)c3)s2)cc1OC` the figure was 1.6%; with `Cc1nonc1C(=O)N/N=C/c1cccc(O)c1`, active: 33.1%; with `COc1cc(C(=O)OCc2ccc(C)cc2)cc(NC(=O)c2cccs2)c1OC`, active: 37.6%.
With `Cc1cc(S(=O)(=O)Nc2cccc(C(=O)O)c2)c(C)c(S(=O)(=O)c2ccccc2)c1` the figure was -7.71%; with `COC(=O)c1cc(NC(=O)CCc2c(C)nc3c4c(C)cc(C)nc4nn3c2C)cc(C(=O)OC)c1`, -9.12%; with `CCOC(=O)c1sc2ccccc2c1S(=O)(=O)Nc1ccc(N(C)C)cc1`, 1.26%.
The same measure for `CCOC(=O)c1sc(N2C(=O)c3oc4cc(C)c(C)cc4c(=O)c3C2c2cccc(O)c2)nc1C` (configuration not stated): 0.863%; for `O=C(N/N=C/c1ccc(O)cc1)c1csc2ccccc12`: active: 32%; for `CCN(CC)S(=O)(=O)c1ccc2c(c1)N(CC(=O)Nc1c(C)cccc1C)C(=O)CO2`: -22.2%.
As for `CCc1ccccc1NC(=O)Cn1nnc(C(=O)OC)c1C(=O)OC`, the inhibition is -24.8%.
The same measure for `O=C1c2ccccc2C(=O)N1CC1c2ccccc2CCN1S(=O)(=O)c1cnc[nH]1` (configuration not stated): active: 46.4%.
As for `CCc1ccc(NCc2cc3cc4c(cc3n(CC(=O)Nc3ccc(Cl)cc3)c2=O)OCO4)cc1`, the inhibition was -7.56%.
With `COc1ccc(NC(=O)CSc2ncc(-c3ccc(Cl)cc3)[nH]2)cc1OC` the figure was 2.4%.
`COC(=O)c1ccc(NC(=O)CC2C(=O)N(c3ccc(Cl)cc3)C(=O)N2Cc2cccs2)cc1` (configuration not stated): the inhibition worked out at 12.7%.
Take `Cc1cc(C)cc(OCC(=O)NCC(c2ccc(Cl)cc2)N2CCCCC2)c1` (configuration not stated): the inhibition was found to be 10.4%.
With `O=C(NCc1ccccc1)c1cc(-c2cccc(Cl)c2)on1` the figure was 5.08%.
The same measure for `CC1CCc2c(sc3nnn(Cc4ccc(F)cc4)c(=O)c23)C1` (configuration not stated): 10%.
In the case of `Cn1c(=O)c2c(n3c4ccccc4nc13)NC(=O)CC2c1ccccc1F` (configuration not stated), the inhibition was found to be 7.73%.
With `CCc1nnc2c(Nc3ccc(Br)c(C)c3)nc3ccccc3n12` the figure was -2.27%.
The same measure for `COc1ccc(S(=O)(=O)N2CCN(c3ccc(F)cc3)CC2)cc1-c1noc(C)n1`: 13.9%; for `Cc1ccc(Cn2c(=O)n(CCCCC(=O)NCCc3ccc(Cl)cc3)c(=O)c3ccccc32)cc1`: -2.77%.
Consider `O=C(CNC(=O)c1ccccc1Cl)OCc1cc(=O)n2ccsc2n1`, for which the inhibition is -3.29%.
The same measure for `Cc1cccc(NC(=O)c2cc(S(=O)(=O)N3CCCCC3)c[nH]2)c1C`: 18.9%; for `Brc1csc(CN2CCc3nc(Nc4ccccc4)ncc3C2)c1`: -5.64%.
The same measure for `Cc1cccc(Cn2c(SCc3ccc(C(=O)N4CCCCCC4)cc3)nc3ccncc32)c1`: 17.1%.
Regarding `COc1cc(CN(C(=O)c2cc3ccccc3oc2=O)C2CCS(=O)(=O)C2)cc(OC)c1OC` (configuration not stated), the inhibition was -22.5%.
The same measure for `CCOC(=O)c1c(Oc2ccc(C(=O)OC)cc2)nnc(-c2ccccc2)c1-c1ccccc1`: 9.58%.
With `Cc1ccc(C)c(N(C)C(=O)c2cn(C)c(=O)c3ccccc23)c1`, the inhibition is -23%.
With `CCN(C(=O)Cn1c(C(=O)OC)cc2oc3ccccc3c21)c1cccc(C)c1` the figure was 0.0733%; with `COc1cc(NC(=O)Cn2c(SCc3ccc(F)cc3)nc3cccnc32)cc(OC)c1`, -2.25%; with `Cc1ccc(CCNC(=O)CCc2cn(Cc3ccccc3C)c3ccccc23)cc1`, -2.63%.
With `CCc1ccc(-n2nnc(-c3nc(-c4ccccc4)no3)c2C)cc1` the figure was 3.68%; with `COc1ccc(CCNC(=O)c2ccc3c(c2)N(Cc2cccc(C)c2)C(=O)c2ccccc2S3(=O)=O)cc1OC`, 7.26%; with `CCOc1ccccc1-c1nc(-c2ccc(-c3ccccc3)nc2OCC)no1`, -7.05%.
With `O=C(Nc1ccccc1)Nc1ccccc1Br` the figure was active: 41.6%; with `COc1ccccc1NC(=O)CSc1nnc(-c2cccc(Cl)c2)o1`, -7.22%.
Regarding `CCn1cc(S(=O)(=O)c2cc(C)cc(C)c2)c(=O)c2cc(F)c(N3CCOCC3)cc21`, the inhibition stood at 9.32%.
Regarding `O=C(CCCN1CC=C(n2c(=O)[nH]c3ccccc32)CC1)c1ccc(F)cc1`, the inhibition was active: 101% and active: 81.3%.
The same measure for `COc1ccccc1Nc1c2c(nc3ccc(NC(=O)/C=C/c4cccc(OC)c4OC)cc13)CCCC2`: 13.9%; for `Cc1ccc(Nc2c3c(nc4nncn24)CCC3)cc1`: 3.38%; for `COc1ccc2nc(N(Cc3cccnc3)C(=O)CCc3ccccc3)sc2c1`: -21.8%.
With `COc1cc(OC)c(NC(c2nnc(-c3ccccc3)o2)c2ccc(F)cc2Cl)cc1Cl` (configuration not stated) the figure was 0.0884%; with `CCc1ccccc1OCCCCN1CCCC1`, active: 46.5%; with `COc1ccc(CC(=O)Nc2ccc3nc(Nc4cccc(Cl)c4)cc(C)c3c2)cc1OC`, 4.86%.
The same measure for `CCc1cccc(CC)c1-n1c(-c2cccnc2)n[nH]c1=S`: active: 66.4%.
`Cc1ccc(S(=O)(=O)N2CCC(Oc3ccc(-n4cnnn4)cc3)CC2)cc1`: the inhibition came out at 2.46%.
Turning to `COc1cc2c(cc1OC)C1=C(C#N)CN(C3CCCCC3)CN1CC2`, the inhibition was active: 40.2%.
The same measure for `COc1ccccc1-n1cc(-c2ccc(C)cc2)nc1S(=O)(=O)CC(=O)Nc1ccccc1C(F)(F)F`: -2.61%.
With `COC(=O)c1sc(-c2ccccc2)cc1NC(=O)c1cccc(F)c1` the figure was -8.58%.
The same measure for `C=CCN=c1scc(-c2ccco2)n1/N=C/c1ccc(O)c(O)c1O`: active: 88.1%.
As to `O=C(NCc1ccc(F)cc1)C1CCN(C(=O)c2ccc(-n3ccc4ccccc43)s2)CC1`, the inhibition was -6.39%.
On to `Cc1ccc(CN2CCCn3nc(C(=O)NCCC(C)C)cc3C2=O)cc1`, for which the inhibition was 15%.
Turning to `COC(=O)c1ccc(NC(=O)C2(S(=O)(=O)c3ccc(C)cc3)CC2)cc1`, the inhibition worked out at 13.6%.
For `O=C(NCCc1ccccc1)c1ccc(CSc2nc3cccnc3n2Cc2ccc(F)cc2)cc1`, the inhibition worked out at 5.13%.
The same measure for `Cc1cc(C)nc(SCCCNCc2ccc(Br)cc2)n1`: active: 58.9%; for `O=C(NC(=O)c1cccc(F)c1)Nc1ccc(-c2cc(C(F)(F)F)nn2-c2ccccc2)cc1`: -16.6%; for `CC(=O)c1ccc(NC(=O)C2CCC(CNS(=O)(=O)c3ccc(Br)s3)CC2)cc1` (configuration not stated): 3.46%.
With `Cc1nc(-c2ccc(C)c(N3CCN(C(=O)Nc4ccccc4C(F)(F)F)CC3)c2)no1` the figure was 25.5%; with `CCN(CC)CCNC(=O)c1cc(S(C)(=O)=O)ccc1OC`, active: 99%.
With `O=C(NCCCc1ccccc1)c1nn(-c2ccccc2F)nc1CO` the figure was 3.67%; with `COc1ccccc1CNC(=O)C1CCN(c2nc3ccc(Cl)cc3[nH]2)CC1`, 0.624%.
As for `CCCS(=O)(=O)c1nc(S(=O)(=O)c2ccc(C)cc2)c(N2CCN(CC)CC2)s1`, the inhibition was active: 67.4%.
